This passage reports B-score results from the supplement of paper PMC11283458.

Test [1] concerns Mef2d microexon dual Nano/Firefly luciferase splicing reporter in Neuro-2a cells. Description: B-score of Firefly/Nano luminescence ratio, V1 Mef2d microexon reporter (B-score (plate-normalised)); higher = more Mef2d microexon inclusion. Particulars: 24 h.
Test [2] shares this test system. The experiment in a line: B-score of Nano/Firefly luminescence ratio, V2 Mef2d microexon reporter (B-score (plate-normalised)); higher = more Mef2d microexon inclusion. Particulars: 24 h.

Some of the results follow. Most values come without repeats; read them as rough.
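Wherever B-score of Nano/Firefly luminescence ratio, V2 Mef2d microexon reporter is given: compounds at 4 µM (PKI library 0.5 µM) on Dox-inducible N2A Flp-In cells with PEST-tagged luciferases, 384-well plates, B-score from per-plate median-polish residual over median absolute residual.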

For `CNC(=S)N/N=C/c1ccccc1O` (4 µM), the B-score in test [1] amounted to 17.7; in test [2], 28.5.
As for `O=C1NC(=O)/C(=C/c2ccc3nccc(-c4ccncc4)c3c2)S1` (0.5 µM), the values for the B-score in test [1] and in test [2] were -8.82 and -1.54, respectively.
For `O=C(Nc1ccc(Cl)cc1)Nc1ccno1` (4 µM), in that order: 8.6 and 0.123.
For the compound `NC(=NOC(=O)N1CCOCC1)c1cccc(C(F)(F)F)c1` (4 µM), the B-score in test [1] worked out at 8.19; in test [2], 3.58.
